Experimental data: patent US4122184A, “Benzimidazole insecticides” (priority 1977, dated 1978)
At least one read-out could not be matched to a standard name with certainty.

How the values were obtained:
[1] = test system: House Fly; experiment: Housefly (Stomach) Test; type: in vivo, Musca domestica (Diptera); settings: 24 h
Procedure: Ten chilled house flies are taken from the rearing cage and placed in a covered petri dish. Sugar cubes treated with 0.2 ml. of a formulation containing a specified level of the insecticide are placed in the petri dish one hour after the flies have been removed from the chill room. Controls consist of sugar cubes treated with 0.2 ml. of deionized water and cubes treated with 0.2 ml. of a formulation containing 500 ppm of malathion. Mortality counts are made 24 hours later. The same rating scale is used as before.

[2] = test system: Oriental Cockroach; experiment: Oriental Roach Test; type: in vivo, Blatta orientalis (Orthoptera); settings: 24 h
Procedure: A rearing pan of late instar (3-4 months old) roaches is placed in a cold room for about 1 hour. Ten nymphs are taken from the pan and placed in each cage and the caged insects are kept at 70°-80° F. for 1 hour. The test cages are then sprayed in the manner indicated above in the milkweed bug test using 5 ml. of a formulation containing a specified amount of the insecticide. The test cages are held for 72 hours during which time the cockroaches are neither fed nor watered. Controls consist of 2 unsprayed cages, two cages sprayed with the formulation alone and 2 cages with a formulation containing 1000 ppm of heptachlor. Mortality counts are made 24 hours after spraying by shaking the cages lightly. All cockroaches remaining in the bottom are counted as dead.

[3] = test system: Mexican Bean Beetle; experiment: Mexican Bean Beetle Test; type: in vivo, Epilachna varivestis (Coleoptera); settings: 48 h
Procedure: Cuttings of four six-day old Bountiful snap bean plants containing two leaves with approximately 5 square inches of leaf surface, are placed in water. The leaves are sprayed to wetting with about 5-10 ml. of a formulation containing a pre-determined level of the test compound. Half of the formulation is sprayed on the top surface and half on the bottom surface of the leaf using a DeVilbiss atomizer at 10 psi held at a distance of about 18 inches from the leaf. After the leaves have dried, they are cut from the stem and placed separately in petri dishes. Ten third instar, nonmolting Mexican bean beetle larvae grown on Bountiful snap beans are placed on each leaf. Controls consist of two leaves sprayed with 5 ml. of a 500 ppm malathion formulation (reference standard), two leaves sprayed with the formulation without the active ingredient and two leaves are held as untreated controls. After 48 hours, a mortality count is made and the amount of feeding noted. Moribund larvae are counted as dead.

[4] = test system: Boll Weevil; experiment: Boll Weevil Test; type: in vivo, Anthonomus grandis (Coleoptera); settings: 48 h
Text: The procedure is identical to that employed for the Mexican bean beetle and the Southern armyworm, except that 10 adult boll weevils are placed on cotton leaves that have been dipped into formulations of the test compounds. The same rating scale is used.

[5] = test system: Melon Aphid; experiment: Melon Aphid Test; type: in vivo, Aphis gossypii (Hemiptera); settings: 24 h
Text: Four blue hubbard squash seeds are planted per container in vermiculite and the containers watered from the bottom. After 6 days, the two weakest plants are cut off and one cotyledon and the primary leaves are removed from each of the two remaining plants. The remaining cotyledon is infested with 100 melon aphids from a stock colony by pinning the cotyledon against an aphid-infested squash cotyledon from the colony and allowing the aphids to transfer. After transfer, the colony leaf is removed. Forty-eight hours later, the infested leaves are sprayed to wetting with formulations containing graded amounts of the insecticide using a DeVilbiss atomizer at 10 psi held at 12-15 inches from the plant. Controls consist of two infested, unsprayed squash plants and two infested plants sprayed to wetting with a formulation containing 100 ppm malathion as a reference standard. The mortality is estimated 24 hours after spraying by observation using a 10 power dissecting microscope. The same rating scale is used as before.

[6] = test system: Milkweed Bug; experiment: Milkweed Bug Test; type: in vivo, Oncopeltis fasciatus (Hemiptera); settings: 48 h
Procedure: Ten adult milkweed bugs are chilled and placed in a test cage. The cages containing the bugs are sprayed with 5 ml. of a test formulation containing a pre-determined amount of the insecticide, using a DeVilbiss atomizer at 10 psi held 33 inches from the top of the cage. After the cage has been allowed to dry, the bugs are fed and watered for 48 hours. A formulation containing 500 ppm of malathion is used as a reference standard and two unsprayed cages are kept as controls. Mortality counts are made 48 hours after spraying. Moribund adults are considered dead. The same rating scale is employed as before.

[7] = test system: House Fly; experiment: Housefly (Contact) Test; type: in vivo, Musca domestica (Diptera); settings: 24 h
Procedure: Rearing cages containing four-day old adult house flies are chilled at 35°-40° F. for about 1 hour. One hundred flies are transferred from the rearing cage to each test cage using a small scoop. The caged flies are kept for 1-2 hours at 70°-80° F. The cages are sprayed in the same manner as described for the milkweed bug with 5 ml. of the test formulation. Two unsprayed cages are held as controls and two cages are sprayed with a 50 ppm DDT formulation as a reference standard. Mortality counts are made 24 hours after spraying. […] The same rating scale is employed as heretofore.

[8] = test system: Two-spotted Spider Mite; experiment: Two-spotted Spider Mite test; type: in vivo, Tetranychus urticae (Acarina); settings: 48 h
Procedure: The procedure in this test is the same as that in the previous aphid test, except that about 100 two-spotted spider mites from a stock colony raised on squash plants are transferred to a cut squash cotyledon. The mortality is estimated 48 hours after spraying. The same rating scale is used.

[9] = test system: Southern Armyworm; experiment: Southern Armyworm Test; type: in vivo, Prodenia eridania (Lepidoptera); settings: 48 h
Procedure: Ten uniform Southern armyworm larvae about 1-1.5 cm. in length, grown on Henderson lima beans, are placed on excized bean leaves in petri dishes. The bean leaves are obtained and sprayed with the insecticide in the same way as are the snap bean leaves in the Mexican bean beetle test. The reference standards in this instance are leaves sprayed with 5 ml. 100 ppm DDT solution. Mortality counts are made 48 hours after spraying and again moribund larvae are counted as dead. Missing larvae which have probably been eaten are considered alive. The same rating scale is used as in the Mexican bean beetle test.

CC(C)OC(=O)n1c(C(F)(F)F)nc2c([N+](=O)[O-])cc(C(F)(F)F)cc21 [I, isopropyl 2,6-bis(trifluoromethyl)-4-nitro-1-benzimidazolecarboxylate]
mortality rating ([1]; 25 ppm): 0 (0-10) | mortality rating ([1]; 50 ppm): 6 (61-70) | mortality rating ([1]; 100 ppm): 9 (91-100) | mortality rating ([1]; 250 ppm): 9 (91-100) | mortality rating ([1]; 1000 ppm): 9 (91-100) | mortality rating ([2]; 50 ppm): 0 (0-10) | mortality rating ([2]; 1000 ppm): 9 (91-100) | mortality rating ([3]; 5 ppm): 0 (0-10) | mortality rating ([3]; 10 ppm): 8 (81-90) | mortality rating ([3]; 50 ppm): 9 (91-100) | mortality rating ([3]; 100 ppm): 9 (91-100) | mortality rating ([3]; 250 ppm): 9 (91-100) | mortality rating ([3]; 500 ppm): 9 (91-100) | mortality rating ([3]; 1000 ppm): 9 (91-100) | mortality rating ([4]; 5 ppm): 6 (61-70) | mortality rating ([4]; 10 ppm): 8 (81-90) | mortality rating ([4]; 250 ppm): 9 (91-100) | mortality rating ([4]; 500 ppm): 9 (91-100) | mortality rating ([4]; 1000 ppm): 9 (91-100) | mortality rating ([5]; 5 ppm): 0 (0-10) | mortality rating ([5]; 10 ppm): 3 (31-40) | mortality rating ([5]; 25 ppm): 6 (61-70) | mortality rating ([5]; 100 ppm): 8 (81-90) | mortality rating ([5]; 500 ppm): 9 (91-100) | mortality rating ([5]; 1000 ppm): 9 (91-100) | mortality rating ([6]; 10 ppm): 0 (0-10) | mortality rating ([6]; 25 ppm): 0 (0-10) | mortality rating ([6]; 50 ppm): 1 (11-20) | mortality rating ([6]; 100 ppm): 8 (81-90) | mortality rating ([6]; 250 ppm): 9 (91-100) | mortality rating ([6]; 500 ppm): 9 (91-100) | mortality rating ([6]; 1000 ppm): 8 (81-90) | mortality rating ([7]; 10 ppm): 5 (51-60) | mortality rating ([7]; 25 ppm): 6 (61-70) | mortality rating ([7]; 50 ppm): 9 (91-100) | mortality rating ([7]; 100 ppm): 9 (91-100) | mortality rating ([7]; 250 ppm): 9 (91-100) | mortality rating ([7]; 500 ppm): 9 (91-100) | mortality rating ([7]; 1000 ppm): 9 (91-100) | mortality rating ([8]; 1 ppm): 0 (0-10) | mortality rating ([8]; 5 ppm): 0 (0-10) | mortality rating ([8]; 10 ppm): 8 (81-90) | mortality rating ([8]; 25 ppm): 8 (81-90) | mortality rating ([8]; 50 ppm): 9 (91-100) | mortality rating ([8]; 100 ppm): 9 (91-100) | mortality rating ([8]; 250 ppm): 9 (91-100) | mortality rating ([8]; 500 ppm): 9 (91-100) | mortality rating ([8]; 1000 ppm): 9 (91-100) | mortality rating ([9]; 100 ppm): 0 (0-10) | mortality rating ([9]; 250 ppm): 4 (41-50) | mortality rating ([9]; 500 ppm): 6 (61-70) | mortality rating ([9]; 1000 ppm): 8 (81-90)

C=CCOC(=O)n1c(C(F)(F)F)nc2c([N+](=O)[O-])cc(C(F)(F)F)cc21 [K, allyl 2,6-bis(trifluoromethyl)-4-nitro-1-benzimidazolecarboxylate]
mortality rating ([1]; 1000 ppm): 9 (91-100) | mortality rating ([2]; 1000 ppm): 9 (91-100) | mortality rating ([3]; 1000 ppm): 9 (91-100) | mortality rating ([4]; 1000 ppm): 9 (91-100) | mortality rating ([5]; 1000 ppm): 9 (91-100) | mortality rating ([6]; 1000 ppm): 9 (91-100) | mortality rating ([7]; 1000 ppm): 9 (91-100) | mortality rating ([8]; 1000 ppm): 9 (91-100) | mortality rating ([9]; 1000 ppm): 8 (81-90)

O=[N+]([O-])c1cc(C(F)F)cc2nc(C(F)(F)F)[nH]c12 [M, 2-trifluoromethyl-4-nitro-6-difluoromethylbenzimidazole]
mortality rating ([1]; 10 ppm): 0 (0-10) | mortality rating ([1]; 25 ppm): 0 (0-10) | mortality rating ([1]; 50 ppm): 0 (0-10) | mortality rating ([1]; 1000 ppm): 9 (91-100) | mortality rating ([2]; 250 ppm): 0 (0-10) | mortality rating ([2]; 1000 ppm): 9 (91-100) | mortality rating ([3]; 250 ppm): 9 (91-100) | mortality rating ([3]; 1000 ppm): 9 (91-100) | mortality rating ([4]; 100 ppm): 5 (51-60) | mortality rating ([5]; 50 ppm): 0 (0-10) | mortality rating ([5]; 100 ppm): 7 (71-80) | mortality rating ([5]; 250 ppm): 9 (91-100) | mortality rating ([5]; 500 ppm): 9 (91-100) | mortality rating ([5]; 1000 ppm): 9 (91-100) | mortality rating ([6]; 250 ppm): 9 (91-100) | mortality rating ([6]; 500 ppm): 9 (91-100) | mortality rating ([6]; 1000 ppm): 9 (91-100) | mortality rating ([7]; 25 ppm): 9 (91-100) | mortality rating ([7]; 50 ppm): 9 (91-100) | mortality rating ([7]; 100 ppm): 9 (91-100) | mortality rating ([7]; 250 ppm): 9 (91-100) | mortality rating ([7]; 500 ppm): 9 (91-100) | mortality rating ([7]; 1000 ppm): 9 (91-100) | mortality rating ([8]; 50 ppm): 1 (11-20) | mortality rating ([8]; 500 ppm): 9 (91-100) | mortality rating ([8]; 1000 ppm): 9 (91-100) | mortality rating ([9]; 1000 ppm): 8 (81-90)
